# Measured values published in publication PMC6919601, “Identification of Plasmodium dipeptidyl aminopeptidase allosteric inhibitors by high throughput screening” (PLoS ONE, 2019).
# In all, about 110,000 compounds went through this assay and about 230 (0.21%) showed an effect of 50% or more. The list shows a part of the results.
# Biological target: DPAP1 (Plasmodium falciparum, UniProt Q8IIJ9)
# Test: primary screen, percent inhibition; read by cleavage of a fluorogenic dipeptide substrate; higher = more effect of the substance
# Design: species or system P. falciparum D10 trophozoite lysates; single well
# 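Note: 30 min substrate incubation versus DMSO and 10 µM JCP410 controls.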
# Sequence of DPAP1 (Q8IIJ9 whole entry, looked up): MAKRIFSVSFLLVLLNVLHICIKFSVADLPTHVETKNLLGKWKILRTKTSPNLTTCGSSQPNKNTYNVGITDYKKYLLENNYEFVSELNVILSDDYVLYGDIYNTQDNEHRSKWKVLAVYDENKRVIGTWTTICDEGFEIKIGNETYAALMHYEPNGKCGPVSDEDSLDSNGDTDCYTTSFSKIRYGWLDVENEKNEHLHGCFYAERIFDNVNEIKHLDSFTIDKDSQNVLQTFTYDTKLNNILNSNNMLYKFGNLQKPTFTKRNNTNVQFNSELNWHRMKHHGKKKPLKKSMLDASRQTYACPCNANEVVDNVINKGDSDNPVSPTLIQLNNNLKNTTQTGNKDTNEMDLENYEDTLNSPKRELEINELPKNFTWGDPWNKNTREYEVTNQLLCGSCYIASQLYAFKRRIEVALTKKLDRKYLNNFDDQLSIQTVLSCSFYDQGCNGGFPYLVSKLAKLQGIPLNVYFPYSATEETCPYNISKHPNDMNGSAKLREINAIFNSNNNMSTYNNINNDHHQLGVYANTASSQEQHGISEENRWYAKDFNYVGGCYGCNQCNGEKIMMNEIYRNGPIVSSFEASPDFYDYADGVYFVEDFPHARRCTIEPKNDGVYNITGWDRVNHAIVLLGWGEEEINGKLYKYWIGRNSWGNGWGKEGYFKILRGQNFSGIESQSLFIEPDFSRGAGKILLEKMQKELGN
row,Compound,% Inhibition @ 10 uM
1,CCOC(=O)c1c(-c2ccccc2)csc1NC(=O)c1cc(=O)c2cc(Cl)ccc2o1,-6.98%
2,C=CCOc1ccc(/C=c2\sc3nc(=O)c(Cc4ccc(C)cc4)nn3c2=O)cc1OC,-4.14%
3,CCOC(=O)C1=C(CS(=O)(=O)c2ccc(Cl)cc2)NC(=O)NC1c1ccc(O)c(OC)c1 (centres unmarked),-3.94%
4,Cc1ccc(OC(C)C(=O)Nc2ccc3c(c2)OCO3)cc1 (centres unmarked),-0.95%
5,CCNc1nc(N)c(C(=O)c2ccc(F)cc2)s1,0.0719%
6,O=C(CSc1nnc(CNC(=O)c2cccs2)o1)NCc1ccc2c(c1)OCO2,0.163%
7,Cc1ccc2c(c1)-c1c(cnn1CC(=O)N(CCCN1CCOCC1)Cc1ccco1)CO2,-4.01%
8,O=C(NCCOCc1ccccc1)c1ccccc1Br,10.4%
9,N#Cc1cnc2c(-c3ccc(Cl)cc3)cnn2c1N,3.19%
10,CC1(C)CC2(CC(c3ccccc3)c3cc(Cl)c(O)cc3O2)NC(=O)N1 (centres unmarked),-3.04%
11,CC(C)Cn1cc(NC(=O)N2CCCN(Cc3ccccc3F)C2)c2ccccc2c1=O,-2.52%
12,O=C(CS(=O)(=O)Cc1ccccc1)Nc1ccccc1Cl,3.92%
13,CC(=O)CC(C)(C)S(=O)(=O)c1ccc2ccccc2c1,-0.687%
14,CC(NC(=O)c1cccc2c1C(=O)N(C1CCCCC1)C2)c1cccs1 (centres unmarked),-4.14%
15,Nc1nc(CSc2nc3cccnc3[nH]2)nc(N2CCCCC2)n1,0.83%
16,CCC(C)NS(=O)(=O)c1cc(-c2onc(C)c2C)ccc1OC (centres unmarked),-6.66%
17,CC(C)=CCCC(C)CN1CCN(CCOCCO)CC1 (centres unmarked),1.62%
18,O=C(Nc1cccc2cccnc12)[C@@H]1C2C=CC(C2)[C@@H]1C(=O)O (some centres unmarked),-0.999%
19,CCOC(=O)c1cc(-c2ccccc2)n(CCC(=O)N(C)Cc2ccccc2)c1,-0.176%
20,C=CCOC(=O)C1=C(C)N=C2CC(C)(C)CC(O)=C2C1c1cccc(Br)c1 (centres unmarked),-2.18%
21,Cc1cc(C)nc(Nc2n[nH]c(-c3ccc(Cl)cc3Cl)n2)n1,-7.22%
22,COc1ccc(-c2nc3cc(C)ccn3c2NC(=O)CCc2ccccc2)cc1OC,1.5%
23,COc1cc(CN2CCN(c3ccccc3)CC2)cc(OC)c1,-1.22%
24,CCOc1ccc(C(=O)Nc2ccccc2C(F)(F)F)cc1,-3.39%
25,O=C1CC2CS(=O)(=O)CC2N1c1ccc(OC(F)(F)Cl)cc1 (centres unmarked),-4.91%
26,CC1CCN(S(=O)(=O)c2ccc(NC(=O)c3ccccc3Cl)cc2)CC1,-3.01%

row,Compound,% Inhibition @ 10 uM
1,O=C(O)Cc1c[nH]c2ccc(O)cc12,-3.58%
2,Cc1cc(=O)sc2c1c1ccccc1n2C,-0.545%
3,Cc1nc2c(-c3ccccc3)c(C)nn2c(C)c1CCC(=O)Nc1ccccn1,-4.1%
4,Cc1nn(C(=O)CCCC(=O)NCC2CCCO2)c2ccccc12 (centres unmarked),0.596%
5,COc1ccc(CCn2c(SCC(=O)N3CCCC(C)C3)nc3ccsc3c2=O)cc1OC (centres unmarked),-1.8%
6,N#CC1=C(N)Oc2c(oc(CO)cc2=O)C1c1ccccc1C(F)(F)F (centres unmarked),4.97%
7,CCOc1ccc(/C=C(\C#N)c2nc(O)c3ccccc3n2)cc1,-3.09%
8,O=C(CN1CCN(Cc2ccc(F)cc2Cl)S1(=O)=O)NCc1ccco1,-4.18%
9,CCOC(=O)c1cnc2ccccc2c1O,-0.216%
10,Cn1c(=O)c2ncn(CC(=O)Nc3ccc(-c4nc5ccccc5s4)cc3)c2n(C)c1=O,20.6%
11,CCOC(=O)c1ccc(OCc2c(C)noc2C)cc1,-5.28%
12,CCC(Sc1nnnn1-c1ccccc1)C(=O)NC1=NN=C(c2ccc(C)cc2)CS1 (centres unmarked),1.12%
13,CCN(CC)C(=O)N1CCC/C1=N\c1ccc(Cl)cc1,-0.99%
14,CCNC(=O)c1c(NC(=O)c2cccs2)sc2c1CCC(C(C)(C)C)C2 (centres unmarked),-4.52%
15,O=C(CSc1nc2ccccc2[nH]1)c1ccc(Cl)cc1,4.89%
16,N#Cc1cc(Cc2ccc(N)c(C#N)c2)ccc1N,4.69%
17,CCOc1c(Cl)cc(/C=C2/C(=N)N3OC(C)=CC3=NC2=O)cc1OC,-5.1%
18,CCCCN(C)Cc1cccc([N+](=O)[O-])c1,-1.78%
19,O=C(c1ccc(F)cc1)N1CCN(C/C=C/c2ccccc2)CC1,0.847%
20,O=C(CCCCN1C(=O)c2ccccc2C1=O)Nc1nc(-c2ccccc2)cs1,3.05%
21,CO/C(O)=C1\C(C)=NC2=C(C(=O)CC(C)(C)C2)C1c1cccc(Cl)c1Cl (centres unmarked),3.05%
22,CN1CCN(C(=O)CN(Cc2ccccc2)S(=O)(=O)c2ccc(Cl)cc2)CC1,-9.26%
23,CCCOc1ccc(-c2csc3ncn(Cc4ccc(C(=O)O)cc4)c(=O)c23)cc1,6.68%
24,Cc1nn(C)c(C)c1CNC(=O)c1cnn2c1NC(c1ccccc1)CC2C(F)(F)F (centres unmarked),-5.85%
25,COc1cccc(-c2nc(CS(=O)(=O)CC(=O)NC(C)c3ccccc3)c(C)o2)c1 (centres unmarked),-3.7%
26,Cc1ccc(NC(=O)c2ccccc2Br)cc1O,2.42%

row,Compound,% Inhibition @ 10 uM
1,COC(=O)c1nnn(-c2cc(C)cc(C)c2)c1C(=O)OC,-1.58%
2,N#Cc1cnc(O)c(C#N)c1Nc1ccccc1,4.42%
3,CCN1C(=O)CC(N2CCC(c3nc4ccccc4[nH]3)CC2)C1=O (centres unmarked),4.61%
4,CCc1ccc(S(=O)(=O)N2CC(=O)Nc3ccccc32)cc1,-3.01%
5,Cc1ccc(S(=O)(=O)Cc2ccc(C(=O)NCCc3ccccc3)o2)cc1,2.14%
6,CC(C)Oc1ccc(-c2nc3s/c(=C\c4ccccc4)c(=O)n3n2)cc1,-1.25%
7,CCOc1ccccc1C1CC(=O)NC2=C1C(=O)CC(c1ccc(F)cc1)C2 (centres unmarked),2.54%
8,Fc1ccccc1OCCCn1ccnc1,3.48%
9,CC(C)(C)C(=O)Nc1sc2c(c1C(=O)O)CCCC2,2.86%
10,NS(=O)(=O)c1ccc(NC(=O)c2ccc(N3C(=O)c4ccccc4C3=O)cc2)cc1,1.96%
11,COc1ccc(OCC(O)COc2ccc(OC)cc2)cc1,0.408%
12,CCOC(=O)N1CCN(C(=O)/C(=C/c2ccccc2Cl)c2ccccc2)CC1,0.408%
13,N#Cc1c(N)nc2c(c1-c1ccc([N+](=O)[O-])cc1)CCC2,4.51%
14,COc1ccc(C(=O)Nc2ccccc2C#N)cc1OC,2.33%
15,CSc1nc2sc3c(c2c(=O)n1-c1ccccc1)CCN(C)C3,-1.66%
16,CC(C)OCCCNC(=O)Cc1c(C(=O)O)[nH]c2ccccc12,-3.48%
17,CCOC(=O)c1cc2c(=O)n3ccccc3nc2n(CCOC)/c1=N\C(=O)C(CC)c1ccccc1 (centres unmarked),-3.78%
18,CCCc1nnc2sc(NC(=O)CC)nn12,-3.42%
19,Cc1ccccc1NC(=O)CN(c1cccc2ccccc12)S(C)(=O)=O,5.29%
20,Cc1ccc(Cn2c(=O)c(C#N)cc3c(=O)n4ccccc4nc32)cc1,1.12%
21,CCOc1ccc(C2C(C(=O)OC)=CN(C)C=C2C(=O)OC)cc1OC,-1.48%
22,CS(=O)(=O)N(CC(=O)Nc1cc(Cl)ccc1Cl)C1CCCCC1,-1.51%
23,CC(NC(=S)c1ccncc1)c1ccccc1 (centres unmarked),-0.744%
24,CCCCN1C(=O)C(NC(=O)c2ccccc2OC)(C(F)(F)F)C(C(=O)OC)=C1C (centres unmarked),-4.78%
25,CCNC(=O)C1CCCc2c1[nH]c1ccc(Cl)cc21 (centres unmarked),0.345%
26,Cc1ccc(NC(=O)C2CC(=O)N(c3ccc(OCc4ccccc4)cc3)C2)cc1C (centres unmarked),-8.29%

row,Compound,% Inhibition @ 10 uM
1,CCOC(=O)c1cc(C)sc1NC(=O)c1ccc(C)cc1,-5.9%
2,CCC(C)c1ccccc1OCC(=O)Nc1ccc(C(C)=O)cc1 (centres unmarked),6.69%
3,Nc1nnc(-c2cc(-c3ccc(Cl)cc3)on2)o1,-5.41%
4,c1ccc2sc(CCCCc3nc4ccccc4s3)nc2c1,-11.6%
5,COc1ccc(Br)cc1CNC(=O)CCC(=O)N1Cc2ccccc2Oc2ncccc21,5.98%
6,COc1ccc2nc(NC(=O)CCN3C(=O)c4ccccc4C3=O)sc2c1,1.82%
7,O=C(CCCN1C(=O)C(c2ccccc2)Oc2cccnc21)NC1CCCCCC1 (centres unmarked),-1.81%
8,COc1ccc(NC(=O)c2c(C(=O)O)cccc2[N+](=O)[O-])cc1,-1.29%
9,CC(C)Cn1cc(C(=O)NCCCN2CCCC2=O)c2c3ccccc3n(C)c2c1=O,-6.45%
10,Cc1nc2c(N)c(Cl)c(Cl)c(N)c2[nH]1,1.7%
11,O=[N+]([O-])c1ccc(S(=O)(=O)N2CCN(c3ccccc3)CC2)cc1,-5.32%
12,O=C(NCc1ccc(F)cc1)N1CCN2CCCCC2C1 (centres unmarked),-6.33%
13,COc1ccc(/C=C2\C(=O)c3ccccc3S2(=O)=O)cc1,-1.06%
14,FC(F)(F)c1nc2ccccc2c2nc3ccccc3n12,-1.47%
15,C=CCNc1nc(-c2sc(N)nc2C)cs1,5.31%
16,COc1cc(NS(=O)(=O)c2ccc(Cl)cc2)c(OC)cc1Cl,3.16%
17,O=C(NCCc1ccccc1Cl)C1CC(=O)N(C2CCCCC2)C1 (centres unmarked),-3.14%
18,COc1ccccc1C(=O)Nc1cccc(C(=O)O)c1C,-3.41%
19,CCO/C=C1/C(=O)N(c2ccc(C)cc2)C(=O)c2cc(OC)ccc21,1.34%
20,CCN1C(=O)NC2C1N(C)C(=O)N2C (centres unmarked),-3.03%
21,O=C(Cc1ccccc1)Nc1ccc(C(=O)NCC2CCCO2)cc1 (centres unmarked),-3.33%
22,Cc1cc(Oc2nc3ccccn3c(=O)c2/C=C(\C#N)c2nc3ccccc3[nH]2)ccc1Cl,92.2%
23,CCOC(=O)N1CCN(Cc2ccc(F)c(Br)c2)CC1,1.08%
